From patent US10471118B2, “Retinylamine derivitives for treatment of ocular disorders” (CASE WESTERN RESERVE UNIVERSITY, priority 2014, dated 2019)

Target: T1, NIH3T3 cells stably expressing LRAT and RPE65 (Homo sapiens, UniProt Q16518)
T1 sequence (Q16518 1-533): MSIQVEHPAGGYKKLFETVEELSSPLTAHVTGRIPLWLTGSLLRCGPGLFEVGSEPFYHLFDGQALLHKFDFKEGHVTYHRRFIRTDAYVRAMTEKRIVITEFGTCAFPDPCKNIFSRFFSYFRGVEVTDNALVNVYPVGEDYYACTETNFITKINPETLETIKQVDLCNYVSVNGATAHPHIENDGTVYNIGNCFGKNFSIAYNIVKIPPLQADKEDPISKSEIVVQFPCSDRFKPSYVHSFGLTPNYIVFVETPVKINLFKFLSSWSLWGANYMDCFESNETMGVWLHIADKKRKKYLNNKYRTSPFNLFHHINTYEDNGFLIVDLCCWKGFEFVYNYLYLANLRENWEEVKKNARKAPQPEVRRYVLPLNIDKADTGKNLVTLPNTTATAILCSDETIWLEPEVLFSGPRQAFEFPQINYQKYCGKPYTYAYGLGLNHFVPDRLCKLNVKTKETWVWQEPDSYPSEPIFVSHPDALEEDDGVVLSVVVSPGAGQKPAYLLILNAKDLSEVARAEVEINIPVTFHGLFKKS
Test: NIH3T3 cell assay of 11-cis-retinol production
Format: cell-based
Description: The cells were plated in 6-well plates using Dulbecco's Modified Eagle Medium (DMEM) and allowed to grow to 90% confluency. The cells were then incubated with DMEM containing 10 μM all-trans-retinol and 4.5 μM retinylamine, or derivatives for 16 hours under dark room conditions. Control groups included a positive control (all-trans-retinol only) and a negative control (no treatment). Cells and medium were collected after 16 hours of incubation. Samples were treated with 2 ml of methanol, homogenized, and saponified with 1 M KOH at 37° C. for 2 hours prior to extraction with hexane. The resulting hexane phase was collected, dried using a SpeedVac, and redissolved in 250 μl of hexane, and retinoid composition was determined by normal phase HPLC.

[1] = 10 μM all-trans-retinol and 4.5 μM drug, 16 h

Row | Structure (SMILES) | inhibition of 11-cis-retinol production [1] | inhibition of 11-cis-retinol production (growth medium supplemented with 3 μM Ret-NH2)
1 | CC1=C(/C=C/C(C)=C/C=C/C(C)=C/CN)C(C)(C)CCC1 [Ret-NH2, (2E,4E,6E,8E)-3,7-dimethyl-9-(2,6,6-trimethylcyclohex-1-en-1-yl)nona-2,4,6,8-tetraen-1-amine, reference compound] | inhibited isomerase activity and 11-cis-retinol production | nearly complete inhibition of 11-cis-retinol production
2 | CC1=C(/C=C/C(C)=C/C=C/C(C)=C/CNC(=O)[C@@H](N)Cc2ccccc2)C(C)(C)CCC1 [RF, (S)-2-amino-N-((2E,4E,6E,8E)-3,7-dimethyl-9-(2,6,6-trimethylcyclohex-1-en-1-yl)nona-2,4,6,8-tetraen-1-yl)-3-phenylpropanamide] | partial inhibition of 11-cis-retinol production | 
